Laboratory results taken from the supplement of paper PMC7826260.
Some of the results follow. The data describe in vitro nicking of single-stranded DNA by Rep domains for 1 h at 37 °C with 3 µM enzyme; only the middle of the 90-letter strands is printed. The score is log2 (uncut reads / reads without enzyme); the lower, the more was cut; hits are not called. Shares of all reads are compared; where an enzyme cuts many sequences, the uncut ones exceed 0.

How the values were obtained:
Assay in all cases: uncleaved DNA left, log2 of reads against the no-enzyme library (log2 ratio); higher = less cleavage (more negative = more Rep cleavage of the k-mer); sequences stand for … in CTCGTCCG…ACCGGAGA
[1] = tested on: T1, Rep nickase domain of Muscovy duck circovirus
T1 sequence (residues 1-111, tag not shown): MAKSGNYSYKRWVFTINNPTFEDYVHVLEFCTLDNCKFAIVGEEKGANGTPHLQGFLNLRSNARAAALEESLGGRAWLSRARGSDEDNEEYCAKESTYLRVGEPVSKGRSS
Procedure: (§1)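 A pool of 90-nt single-stranded DNAs with seven random bases just before the constant AC of the nick site (name = the seven bases) was cut by 3 µM recombinant His6-SUMO-tagged Rep nickase domain (300 nM DNA, 50 mM HEPES pH 8.0, 50 mM NaCl, 1 mM MnCl2, 1 h, 37 °C, three replicates). Uncut DNA was amplified and sequenced.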

[2] = tested on: T2, Rep nickase domain of banana bunchy top virus
T2 sequence (residues 1-94, tag not shown): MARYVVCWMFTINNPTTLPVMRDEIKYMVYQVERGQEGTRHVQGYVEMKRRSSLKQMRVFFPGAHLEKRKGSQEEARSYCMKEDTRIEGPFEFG
Procedure: as §1

[3] = tested on: T3, Rep nickase domain of cabbage leaf curl virus
T3 sequence (residues 1-116, tag not shown): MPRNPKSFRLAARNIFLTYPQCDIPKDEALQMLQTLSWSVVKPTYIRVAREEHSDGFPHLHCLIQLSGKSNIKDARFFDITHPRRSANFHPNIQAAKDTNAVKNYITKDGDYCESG
Procedure: as §1

[4] = tested on: T4, Rep nickase domain of chickpea chlorotic dwarf virus
T4 sequence (residues 1-124, tag not shown): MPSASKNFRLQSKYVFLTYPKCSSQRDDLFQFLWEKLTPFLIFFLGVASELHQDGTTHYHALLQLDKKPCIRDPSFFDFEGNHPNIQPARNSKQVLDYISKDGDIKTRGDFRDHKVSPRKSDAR
Procedure: as §1

[5] = tested on: T5, Rep nickase domain of faba bean necrotic yellows virus
T5 sequence (residues 1-98, tag not shown): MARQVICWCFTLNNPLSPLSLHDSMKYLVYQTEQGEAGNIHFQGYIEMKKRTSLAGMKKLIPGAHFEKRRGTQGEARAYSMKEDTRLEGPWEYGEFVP
Procedure: as §1

[6] = tested on: T6, Rep nickase domain of maize striate mosaic virus
T6 sequence (residues 1-117, tag not shown): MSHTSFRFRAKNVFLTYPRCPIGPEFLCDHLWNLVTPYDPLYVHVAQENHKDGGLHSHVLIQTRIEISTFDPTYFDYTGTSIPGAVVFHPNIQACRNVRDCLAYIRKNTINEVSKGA
Procedure: as §1

[7] = tested on: T7, Rep nickase domain of porcine circovirus 2
T7 sequence (residues 2-116, tag not shown): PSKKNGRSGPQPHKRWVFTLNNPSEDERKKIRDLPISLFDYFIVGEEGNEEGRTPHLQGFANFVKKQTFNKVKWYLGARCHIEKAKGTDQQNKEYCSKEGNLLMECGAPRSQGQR
Procedure: as §1

[8] = tested on: T8, Rep nickase domain of tomato golden mosaic virus
T8 sequence (residues 1-124, tag not shown): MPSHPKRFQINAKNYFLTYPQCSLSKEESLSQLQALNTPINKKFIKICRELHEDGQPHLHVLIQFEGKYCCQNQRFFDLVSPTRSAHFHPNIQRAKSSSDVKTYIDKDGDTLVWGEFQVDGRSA
Procedure: as §1

[9] = tested on: T9, Rep nickase domain of tomato yellow leaf curl virus
T9 sequence (residues 1-136, tag not shown): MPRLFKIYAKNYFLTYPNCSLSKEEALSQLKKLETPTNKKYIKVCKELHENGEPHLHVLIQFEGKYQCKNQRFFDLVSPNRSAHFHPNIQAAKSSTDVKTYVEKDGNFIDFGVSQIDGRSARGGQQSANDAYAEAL
Procedure: as §1

[10] = tested on: T10, Rep nickase domain of wheat dwarf virus
T10 sequence (residues 1-137, tag not shown): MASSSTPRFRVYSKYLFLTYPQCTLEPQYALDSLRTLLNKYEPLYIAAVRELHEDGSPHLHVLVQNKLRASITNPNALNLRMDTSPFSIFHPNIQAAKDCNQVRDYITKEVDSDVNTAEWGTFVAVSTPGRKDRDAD
Procedure: as §1

Row | Sequence | uncleaved DNA left (log2) [1] | uncleaved DNA left (log2) [2] | uncleaved DNA left (log2) [3] | uncleaved DNA left (log2) [4] | uncleaved DNA left (log2) [5] | uncleaved DNA left (log2) [6] | uncleaved DNA left (log2) [7] | uncleaved DNA left (log2) [8] | uncleaved DNA left (log2) [9] | uncleaved DNA left (log2) [10]
1 | ATTGATG | -0.0383 | -0.0498 | -0.476 | -0.304 | -0.014 | -0.932 | 0.181 | -0.00113 | 0.196 | 0.0343
2 | GAGTTCG | 0.0606 | 0.0239 | -0.783 | -0.201 | 0.0074 | -0.63 | -0.0662 | -0.0914 | 0.0389 | -0.0638
3 | CGATCCA | -0.0506 | -0.0457 | -0.017 | -0.478 | -0.00132 | -0.195 | -0.0273 | -0.036 | 0.00495 | -0.00581
4 | AAGGGTC | 0.0465 | 0.123 | 0.264 | 1.36 | 0.0501 | 1.16 | 0.143 | 0.199 | -0.0309 | 0.0816
5 | GGAGTGG | 0.163 | -0.0368 | 0.306 | 0.75 | 0.0183 | 0.616 | 0.185 | 0.0243 | 0.0378 | 0.127
6 | AGCTCTG | 0.0509 | 0.19 | 0.094 | 0.677 | 0.031 | 1.61 | 0.0937 | 0.117 | -0.0506 | 0.0967
7 | GCTTGCG | -0.00246 | -0.0404 | 0.284 | 1.41 | 0.0693 | 1.51 | 0.177 | 0.0224 | -0.095 | -0.0598
8 | TGCGTTA | 0.158 | 0.0361 | -0.287 | -0.449 | 0.262 | -0.823 | -0.0977 | 0.125 | 0.159 | 0.0855
9 | GTTTGCG | 0.0617 | 0.0154 | -0.0589 | 1.13 | 0.0694 | 0.853 | 0.216 | 0.00028 | -0.193 | -0.0443
10 | TATCGTC | 0.257 | 0.0702 | 0.0667 | -0.253 | 0.00905 | -1.05 | 0.0614 | -0.0109 | 0.0469 | 0.121
11 | AATACTG | -0.0162 | 0.0283 | 0.0626 | 0.695 | 0.0229 | 1.3 | 0.101 | 0.114 | -0.0864 | -0.0268
12 | TTGCGTG | 0.0487 | -0.0114 | -0.633 | -0.618 | 0.0371 | -1.1 | 0.164 | 0.0149 | 0.0496 | 0.0727
13 | CGTATGC | -0.0133 | -0.105 | -0.264 | -0.346 | -0.125 | -0.925 | -0.0156 | -0.091 | -0.109 | -0.0849
14 | TGCTTGG | -0.0619 | -0.165 | -0.283 | -0.291 | -0.0812 | -0.752 | -0.102 | -0.112 | -0.217 | -0.359
15 | ATAAGCC | -0.121 | -0.0138 | -2.88 | -2.9 | -0.078 | -2.06 | -0.0172 | -0.476 | -0.145 | -1.57
16 | CATCTCA | 0.0391 | 0.134 | -0.122 | -1.44 | 0.0339 | -0.407 | 0.0506 | -0.00929 | 0.138 | 0.141
17 | CCAGTCG | -0.142 | -0.0245 | -0.797 | -0.136 | -0.0374 | -1.03 | -0.0345 | -0.27 | 0.00833 | -0.0777
18 | ATCATAA | 0.214 | 0.0759 | -0.0068 | -0.164 | 0.232 | -0.786 | 0.224 | 0.0914 | 0.123 | 0.0925
19 | CACAGCG | -0.11 | -0.0388 | -0.791 | 0.215 | 0.0468 | -0.698 | 0.0367 | -0.101 | 0.00609 | -0.115
20 | TCTTGGG | -0.0674 | -0.0876 | -0.661 | -0.747 | 0.0608 | -1.16 | 0.0831 | 0.0198 | 0.00576 | -0.149
21 | CCTTGCT | -0.153 | -0.042 | -0.722 | -0.962 | 0.073 | -1.11 | -0.552 | -0.0359 | 0.0397 | -0.164
22 | GTTGAAA | 0.145 | 0.149 | 0.347 | 0.929 | 0.0865 | 1.9 | 0.237 | 0.152 | 0.0871 | 0.146
23 | AAAATAT | -0.115 | -0.0895 | -1.65 | -2.41 | -0.0274 | -0.417 | -0.74 | -0.094 | -0.0387 | -0.496
24 | CCGCAGT | -0.036 | -0.171 | -0.348 | -0.552 | -0.036 | -0.812 | 0.0128 | -0.0959 | -0.118 | -0.14
25 | TGTGCTA | -0.104 | -0.083 | 0.168 | 0.438 | -0.0418 | 0.941 | -0.0285 | 0.0229 | 0.044 | -0.0395
26 | TATGTGT | 0.0535 | -0.0866 | -0.527 | -1.23 | 0.0699 | -1.03 | -0.0512 | -0.0361 | 0.0153 | -0.108
27 | CGAGTTC | 0.0486 | 0.00301 | 0.17 | -0.228 | 0.00419 | -0.308 | 0.0532 | -0.0696 | -0.14 | 0.00191
28 | AACCCAC | -0.0543 | -0.115 | 0.117 | -0.14 | -0.0717 | -0.288 | -0.421 | -0.198 | -0.107 | 0.0018
29 | ATCCTAT | 0.0292 | 0.0477 | 0.168 | -0.718 | 0.22 | -0.687 | -0.101 | 0.0769 | -0.0239 | -0.0115
30 | GTGTCTT | -0.0441 | -0.0622 | 0.376 | 0.774 | -0.101 | 1.72 | -2.04 | -0.0418 | 0.0262 | 0.114
